Experimental data taken from the supplement of paper PMC11417369.
± gives the standard deviation of the averaged measurements. Some of the results follow.

The sequences below were run on PfAP2-EXP AP2 domain (GST-tagged) (assay: gcPBM binding intensity (ln(normalized median fluorescence intensity)); higher = stronger DNA binding).
Outline: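 The highest Masliner-normalised natural-log median intensity across replicate spots of either probe orientation is reported as binding intensity. GST-tagged P. falciparum DNA-binding domains expressed in E. coli were applied for 1 h to an Agilent 4 × 180k array of primer-extended double-stranded 36-bp intergenic genomic probes plus negative controls, and bound protein was detected with Alexa488 anti-GST antibody and scanned at 488 nm.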

Sequence	gcPBM binding intensity (ln)
AAAATTAAAAAGAACACACAAATATATCTATAATAA [CACACA_site7660]	8.65 ± 0.4
TAAAAAAAAAAAAAAACACACATATAAATATATATA [CACACA_site1243]	8.21 ± 0.25
GCACATAAATATATGACACACACACCGATTATATAT [CACACA_site9003]	8.66 ± 0.43
TTAATAAATAAAAATGCACACAGTTAACATGTTGAA [CACACA_site1200]	8.61 ± 0.38
ATAATAATTTAATACATACACACGTATATCTTTTTT [CACACA_site2041]	8.45 ± 0.4
AAAAAAAAAAAAAAAACACACAAACATCAAATTATT [CACACA_site5083]	8.6 ± 0.2
ATACAAAAAGTAAAAAGTACTTAACTAAATATATAA [XGTACX_site2335]	8.58 ± 0.35
TTTTCAATATATTAATGTACGAATACGCAAATAAGA [XGTACX_site1613]	9.35 ± 0.48
TTTTTTTTTTTTTTTGCACACACATAATAGGTACAA [CACACA_site3578]	8.46 ± 0.37
GCAGGATTGGTTCAAACACACATATTATATGACTAT [CACACA_site660]	8.61 ± 0.4
ATCTTATATGATCACACACACACGCACAAAACAGAA [CACACA_site4913]	8.91 ± 0.52
ATATACATATGTGTGTGTACTTATATCACATTTTTG [XGTACX_site3785]	8.61 ± 0.41
TTATGGATAAATAAATGTACGTTAAGATAACACAAA [XGTACX_site4208]	8.51 ± 0.39
GTTTTTTTGTTTTAGTGTACCTAAAACTGCATGTAG [XGTACX_site294]	9.41 ± 0.38
TCGACAAAGGCATATACACACATTTGTAACATAAAT [CACACA_site4471]	8.31 ± 0.52
ATTTCTCTATAGTAATGTACAAAAAAAAGGAAAAAG [XGTACX_site2757]	8.76 ± 0.39
CAAGAATAAAAATACAAGCACACATGTATGAAATAT [CACACA_site3214]	8.91 ± 0.42
ACATAAAATAAATATACACACATATGTATTTATTAT [CACACA_site5648]	8.28 ± 0.43
AAACCGAATTTACATGAATGTAAATTATGTTGTTTT [CACACA_negctrl_site1834]	8.37 ± 0.38
TATTTAATTACATGAACACACATTATGTATTTTTAA [CACACA_site2962]	8.3 ± 0.3
TAAAAAAAAAAAACAAGTACATATATAAATATATAT [XGTACX_site7537]	8.19 ± 0.35
TTTTTATTTAATAATATATTAATCATATAAATAAAT [GTGCAC_negctrl_site210]	7.96 ± 0.43
TATATTCTTATTATTGCATGCTGCACGAAGATTTTC [TGCATGCA_site831]	9.14 ± 0.56

Sequence	gcPBM binding intensity (ln)
ATAATAAATAAAATAACACACATATATAGATATATA [CACACA_site6224]	8.44 ± 0.29
TGTATGCATATTTGATGTACGCACATATACTAATTT [XGTACX_site3159]	8.82 ± 0.47
TTTATATAAAAAAATTGTACATATTTATTATAAACA [XGTACX_site2124]	8.26 ± 0.3
TTTAATTATAAGATAACACACAAAAAAAATAAAATA [CACACA_site254]	8.7 ± 0.59
GTATGTTTGTTATGCACACAAATGCATCTTATTTCC [CACACA_site2690]	8.96 ± 0.28
TATATATATATATATTGTACATTTTTTTTTTTTTTT [XGTACX_site7891]	10.1 ± 0.23
AAAAAAAAAAAAAGCACACACACATATGAGTATATA [CACACA_site4682]	8.54 ± 0.33
AATTTCAAATTGTATGTGCACATGTAGAAGTACTTT	9.31 ± 0.27
GTGCCTTTAAAAAAAAGTACAAAAAAGAACGAATTA [XGTACX_site3714]	8.93 ± 0.14
TATGTAAAGAGTAAGGGTACATGTATAATACGGCTC [XGTACX_site1283]	9.3 ± 0.56
TTTTCATTAAATATATATGCATACCATATGTACATT [GTGCAC_negctrl_site539]	8.68 ± 0.39
TTTAAAATATTTTCTTGTACGAAGGAACATTTCTTA [XGTACX_site4013]	8.5 ± 0.64
AAATACTATATCAAGCGTACTTATTTCATGGTAATA [XGTACX_site7878]	8.62 ± 0.3
TAATAAAGTATTTTGCGTACTTATTTTATTCTTCTA [XGTACX_site2095]	8.1 ± 0.085
ATTGTGTGAACAAAATGTACATTTTCTCTACATTAA [XGTACX_site1333]	8.46 ± 0.35
TGGCATATATATAAATGTACTTTCTTTCTATCTGTT [XGTACX_site8483]	8.59 ± 0.37
GCCCCCAAATTATGTGTGCACTTTATATTCCTGAGA [GTGCAC_site9474]	9.8 ± 0.2
TTATATATATGTAATTGTACTTTTAATTTTTTTTTA [XGTACX_site4357]	8.33 ± 0.44
TATTTTATAATAGGCACACATATAAAAATATATATA [CACACA_site4127]	8.29 ± 0.5
TAATTTTTTTTAAATACACACTGAAATGTGAATTTT [CACACA_site4476]	8.09 ± 0.35
ATAAAAATAAAAGACGCATGTTCTTAAAATAAGAAC [TGCATGCA_site189]	8.49 ± 0.49
GTGTGATCTTTTGAAAGTACATTTTTTTTTTTTTTT [XGTACX_site6311]	8.43 ± 0.22
